# Results as given in PubChem BioAssay (NCATS).
# Several values for one entry are separate records, joined by “and”; a condition that tells them apart may be missing. Equal values may be shown once. The shares of active, inactive and inconclusive entries below differ from those in the screen. For part of these data: Potencies of inconclusive entries are doubtful fits and often do not repeat. The source holds several records for some structures; these can differ, active in one and inactive in another. Activity calls are given as the source filed them. Unless noted, calls come from the whole dose curve; as a rule, active = well fitted curve in the direction sought with a large enough effect; inconclusive = small, poorly fitted or top-dose-only effect, or another doubt; inactive = no such curve, though single readings can be large; an effect the other way counts as inactive or inconclusive.
# Experiments:
# [1] = Primary qHTS to identify inhibitors of SARS-CoV-2 cell entry (AID 1645846; calls by dose curve; note: potency is the fitted concentration of half-maximal effect; nearly all actives have a fitted effect of over 45% in size); settings: SARS-CoV-2 pseudovirus cell entry assay, luminescence; series mostly up to 57.1 µM
# How it was run: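 Entry measured by luciferase signal 48 h after adding SARS-CoV-2-S pseudotyped MLV particles to HEK293-ACE2 cells preincubated 1 h with compounds. Normalisation: bald particles and spike particles.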
# [2] = Primary qHTS for inhibitors of nuclear receptor binding SET domain protein 2 (NSD2) in an RCH-ACV wild type WT cells (2C) (AID 1645877); settings: RCH-ACV NSD2 WT (2C) viability, CellTiter-Glo, 72 h; series mostly up to 44.9 µM; note: potency is the fitted concentration of half-maximal effect; nearly all actives have a fitted effect of over 70% in size
# [3] = target: Phospholipid hydroperoxide glutathione peroxidase GPX4 (Homo sapiens) (UniProt P36969); assay: Primary qHTS Assay for Inhibitors of Recombinant Selenoprotein Glutathione Peroxidase 4 (GPX4) (AID 1845192); settings: recombinant GPX4, GR-coupled NADPH fluorescence, 15 min; series mostly up to 50 µM; note: potency is the fitted concentration of half-maximal effect; nearly all actives have a fitted effect of over 65% in size
# How it was run: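 qHTS, GR-coupled: GPX4 200 nM + cpd 30 min RT → GSH 1 mM, NADPH 0.5 mM, GR 100 nM → CHP 0.5 mM start; fluor 340/450 at t0 and t15 min; no-enzyme wells as control.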
# [4] = VSVG counterscreen qHTS to identify inhibitors of SARS-CoV-2 cell entry (AID 1645847; calls by dose curve; note: potency is the fitted concentration of half-maximal effect; nearly all actives have a fitted effect of over 65% in size); settings: VSV-G pseudotyped particle entry, luciferase; series mostly up to 57.2 µM
# How it was run: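 Luminescence read after 48 h infection at 37 C with VSV-G-pseudotyped MLV particles, following 1 h compound exposure of Expi293F cells stably expressing human ACE2; scaled between bald particle and VSV-G particle wells.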
# [5] = Primary qHTS for inhibitors of nuclear receptor binding SET domain protein 2 (NSD2) in an isogenic RCH-ACV NSD2 p.E1099K mutant (9B) (AID 1645876); settings: RCH-ACV (leukaemia line) NSD2 E1099K (9B) viability, CellTiter-Glo, 72 h; series mostly up to 44.9 µM; note: nearly all actives have a fitted effect of over 70% in size; note: potency is the fitted concentration of half-maximal effect
# [6] = Primary fluorescence-based thiol-reactive (MSTI) qHTS assay for identification of artifact compounds. (AID 1845221); settings: MSTI thiol-reactivity probe, 1 h; series mostly up to 53.8 µM;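 note: potency is the fitted concentration of half-maximal effect; thiol-reactive compounds lower the probe fluorescence signal; nearly all actives have a fitted effect of over 65% in size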
# How it was run: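 MSTI probe at 4 uM final in 2% DMSO/PBS pH 7.4; compounds, 1 h at room temperature in dark. Fluorescence Ex/Em 525/598 nm, normalised to Acetyl-MSTI and MSTI, fitted to 4-parameter Hill.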
# [7] = target: Glutathione peroxidase 1 (Homo sapiens) (UniProt P07203); assay: Primary qHTS Assay for Inhibitors of Recombinant Selenoprotein Glutathione Peroxidase 1 (GPX1) (AID 1845191); settings: recombinant GPX1, GR-coupled NADPH fluorescence, 15 min; series mostly up to 48.8 µM; note: nearly all actives have a fitted effect of over 65% in size; note: potency is the fitted concentration of half-maximal effect
# How it was run: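 GPX1 10 nM, GR 100 nM, GSH 1 mM, NADPH 0.5 mM, CHP 0.5 mM (final). 30-min cpd preincubation, RT. Ex340/Em450 read t=0, t=15 min.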
# [8] = target: Rap guanine nucleotide exchange factor 3 (Homo sapiens) (UniProt O95398); assay: Confirmatory qHTS for antagonist of cAMP-regulated guanine nucleotide exchange factor 3 (EPAC1) (AID 1645880); settings: EPAC1 Rap1B-BODIPY-GDP exchange, fluorescence; series mostly up to 115 µM; note: potency is the fitted concentration of half-maximal effect; nearly all actives have a fitted effect of over 55% in size
# How it was run: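 Released BODIPY-GDP fluoresces less than Rap1-bound BODIPY-GDP; the signal is followed at 480/540 nm at 5-min intervals over 30 min, after 5 min at room temperature. Reactions contain 100 nM EPAC1, 250 nM RAP1B-BODIPY-GDP and 50 uM GDP; results are normalized to ATA and DMSO.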
# [9] = target: Rap guanine nucleotide exchange factor 4 (Homo sapiens) (UniProt Q8WZA2); assay: Confirmatory qHTS for agonist of cAMP-regulated guanine nucleotide exchange factor 4 (EPAC2) (AID 1645884); settings: EPAC2 GEF activity, Rap1B-BODIPY-GDP fluorescence; series mostly up to 154 µM
# Papain (Carica papaya) = Papain (Carica papaya) (UniProt P00784); assay: Primary qHTS assay for inhibitors of the protease papain (AID 1645873); settings: papain Z-FR-AMC cleavage, AMC fluorescence; series mostly up to 49.8 µM;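 note: papain turnover of Z-FR-AMC read as the AMC fluorescence gain over 10 min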; note: potency is the fitted concentration of half-maximal effect
# [10] = target: N-terminal Xaa-Pro-Lys N-methyltransferase 1 (Homo sapiens) (UniProt Q9BV86); assay: Confirmatory qHTS for Inhibitors of N-terminal methyltransferase 1 (NTMT1): MTaseGlo Assay (AID 1645874); settings: NTMT1 enzyme, MTase-Glo SAH luminescence; series mostly up to 100 µM; note: nearly all actives have a fitted effect of over 65% in size; note: potency is the fitted concentration of half-maximal effect
# How it was run: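 MTase-Glo luminescence measured SAH formed by 125 nM NTMT1 from 100 uM SAM and 1 uM SPKRIA peptide over 30 min at room temperature, following 15 min compound preincubation. Percent inhibition against no-enzyme and DMSO controls gave 4-parameter Hill fits.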
# [11] = target: Metallo-beta-lactamase type 2 (Klebsiella pneumoniae) (UniProt C7C422); assay: qHTS to identify inhibitors of the New Delhi Metallo-beta-lactamase (NDM): assay validation screen against the NCATS LOPAC Collection (AID 1794843); settings: NDM-1 enzyme, nitrocefin hydrolysis, absorbance 485 nm; series mostly up to 38.4 µM; note: potency is the fitted concentration of half-maximal effect
# How it was run: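 Absorbance at 485 nm from nitrocefin turnover (50 uM solution added), read at plateau, gives the read-out. Compounds in DMSO were incubated first with 2 nM final NDM-1 in pH 7.0 HEPES buffer containing 1 uM ZnSO4 and 0.01% Tween20.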
# Tags give direction and shape of the fitted curve.
# Sequence of UniProt Q9BV86 (Q9BV86 whole entry, looked up): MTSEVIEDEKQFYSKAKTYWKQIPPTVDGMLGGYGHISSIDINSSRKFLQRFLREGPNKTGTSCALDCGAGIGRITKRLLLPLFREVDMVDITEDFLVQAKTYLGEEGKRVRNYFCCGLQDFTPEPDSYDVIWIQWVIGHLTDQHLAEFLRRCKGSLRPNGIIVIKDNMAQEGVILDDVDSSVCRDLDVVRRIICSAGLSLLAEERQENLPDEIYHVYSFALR
# Sequence of UniProt P36969 (P36969 whole entry, looked up): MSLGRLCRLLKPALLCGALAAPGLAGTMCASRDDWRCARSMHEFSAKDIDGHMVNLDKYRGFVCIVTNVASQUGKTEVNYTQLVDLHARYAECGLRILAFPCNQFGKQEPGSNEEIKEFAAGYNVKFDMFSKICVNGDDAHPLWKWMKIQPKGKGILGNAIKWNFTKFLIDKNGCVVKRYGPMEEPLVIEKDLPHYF
# Sequence of UniProt P07203 (P07203 whole entry, looked up): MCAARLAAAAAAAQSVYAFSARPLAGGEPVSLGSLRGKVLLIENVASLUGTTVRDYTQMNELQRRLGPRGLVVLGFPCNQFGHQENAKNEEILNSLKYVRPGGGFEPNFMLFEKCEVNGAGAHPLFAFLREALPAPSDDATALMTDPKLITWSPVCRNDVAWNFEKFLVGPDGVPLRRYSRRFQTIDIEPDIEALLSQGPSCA
# Sequence of UniProt P00784 (P00784 whole entry, looked up): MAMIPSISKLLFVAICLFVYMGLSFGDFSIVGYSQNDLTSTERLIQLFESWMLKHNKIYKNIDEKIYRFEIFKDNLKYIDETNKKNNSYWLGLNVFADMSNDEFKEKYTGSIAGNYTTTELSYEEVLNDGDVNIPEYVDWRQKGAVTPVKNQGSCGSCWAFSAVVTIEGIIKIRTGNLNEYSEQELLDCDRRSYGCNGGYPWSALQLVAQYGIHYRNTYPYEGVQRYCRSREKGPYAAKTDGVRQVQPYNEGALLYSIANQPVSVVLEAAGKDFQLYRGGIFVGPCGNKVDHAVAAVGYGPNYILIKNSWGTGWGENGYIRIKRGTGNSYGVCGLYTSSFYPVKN
# Sequence of UniProt C7C422 (C7C422 whole entry, looked up): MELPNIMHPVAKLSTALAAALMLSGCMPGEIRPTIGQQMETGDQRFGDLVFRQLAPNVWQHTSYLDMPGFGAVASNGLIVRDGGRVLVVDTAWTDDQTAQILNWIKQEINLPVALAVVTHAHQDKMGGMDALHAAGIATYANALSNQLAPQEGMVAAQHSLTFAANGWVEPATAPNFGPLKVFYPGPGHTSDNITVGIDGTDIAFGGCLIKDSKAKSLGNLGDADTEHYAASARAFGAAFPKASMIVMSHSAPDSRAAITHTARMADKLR
# Sequence of UniProt O95398 (O95398 whole entry, looked up): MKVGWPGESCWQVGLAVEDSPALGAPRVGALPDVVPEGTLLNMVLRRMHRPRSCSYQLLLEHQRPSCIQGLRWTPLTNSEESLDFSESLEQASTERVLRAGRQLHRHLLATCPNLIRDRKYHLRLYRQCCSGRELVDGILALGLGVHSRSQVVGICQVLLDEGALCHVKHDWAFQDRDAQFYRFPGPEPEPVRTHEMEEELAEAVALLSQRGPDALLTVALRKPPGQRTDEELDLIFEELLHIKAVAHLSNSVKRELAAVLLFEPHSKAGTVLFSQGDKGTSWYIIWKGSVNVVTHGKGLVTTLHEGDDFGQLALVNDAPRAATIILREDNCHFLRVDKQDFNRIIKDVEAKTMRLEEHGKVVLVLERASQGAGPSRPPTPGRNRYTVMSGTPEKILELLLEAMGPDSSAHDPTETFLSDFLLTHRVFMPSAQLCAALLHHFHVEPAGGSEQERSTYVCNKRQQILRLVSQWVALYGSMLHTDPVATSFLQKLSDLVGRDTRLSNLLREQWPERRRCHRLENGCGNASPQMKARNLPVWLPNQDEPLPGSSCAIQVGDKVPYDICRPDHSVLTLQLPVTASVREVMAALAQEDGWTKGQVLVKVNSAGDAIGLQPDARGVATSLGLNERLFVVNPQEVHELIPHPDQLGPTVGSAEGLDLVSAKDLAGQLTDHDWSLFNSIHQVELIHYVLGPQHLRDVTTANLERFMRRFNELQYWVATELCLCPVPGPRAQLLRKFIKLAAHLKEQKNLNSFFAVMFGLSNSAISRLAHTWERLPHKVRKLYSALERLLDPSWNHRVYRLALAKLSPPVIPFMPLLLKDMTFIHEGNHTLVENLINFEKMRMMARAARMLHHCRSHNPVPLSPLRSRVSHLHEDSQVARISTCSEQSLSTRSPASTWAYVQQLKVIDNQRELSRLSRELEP
# Sequence of UniProt Q8WZA2 (Q8WZA2 whole entry, looked up): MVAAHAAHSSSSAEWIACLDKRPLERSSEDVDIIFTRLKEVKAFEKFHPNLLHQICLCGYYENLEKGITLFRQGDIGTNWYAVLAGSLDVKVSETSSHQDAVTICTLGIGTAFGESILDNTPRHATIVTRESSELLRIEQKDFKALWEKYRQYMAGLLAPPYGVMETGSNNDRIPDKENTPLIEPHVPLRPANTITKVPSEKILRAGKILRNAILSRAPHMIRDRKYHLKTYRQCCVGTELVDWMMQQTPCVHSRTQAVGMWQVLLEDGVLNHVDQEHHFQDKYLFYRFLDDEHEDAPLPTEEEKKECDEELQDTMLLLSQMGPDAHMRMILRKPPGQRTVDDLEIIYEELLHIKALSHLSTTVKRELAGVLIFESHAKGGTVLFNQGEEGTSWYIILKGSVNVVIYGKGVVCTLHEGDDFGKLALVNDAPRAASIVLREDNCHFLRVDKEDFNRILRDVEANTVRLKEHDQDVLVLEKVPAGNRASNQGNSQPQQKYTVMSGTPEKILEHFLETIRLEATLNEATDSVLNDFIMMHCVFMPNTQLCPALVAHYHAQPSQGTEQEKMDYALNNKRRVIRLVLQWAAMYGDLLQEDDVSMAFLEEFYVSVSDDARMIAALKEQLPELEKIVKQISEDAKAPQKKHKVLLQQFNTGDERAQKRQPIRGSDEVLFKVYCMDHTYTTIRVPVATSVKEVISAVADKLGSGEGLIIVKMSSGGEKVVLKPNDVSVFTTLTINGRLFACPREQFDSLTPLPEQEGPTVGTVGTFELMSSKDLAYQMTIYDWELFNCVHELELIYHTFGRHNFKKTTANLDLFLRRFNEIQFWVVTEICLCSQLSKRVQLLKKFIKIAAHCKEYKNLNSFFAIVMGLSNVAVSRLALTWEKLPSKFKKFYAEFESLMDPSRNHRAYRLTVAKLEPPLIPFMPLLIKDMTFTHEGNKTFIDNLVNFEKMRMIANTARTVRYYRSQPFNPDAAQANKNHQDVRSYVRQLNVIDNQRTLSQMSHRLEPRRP
compound,measurement,setting,value
CC1(N2CCC(n3c([C@@H]4CCCNC4)nc4ccccc43)CC2)CCCCCCC1,Potency,[1],active: 5.01 µM
same,Potency,[2],active: 7.28 µM and active: 13.2 µM
Cn1cc(C2=C(c3cn(C4CCN(Cc5ccccn5)CC4)c4ccccc34)C(=O)NC2=O)c2ccccc21,Potency,[1],"inconclusive: 2.24 µM [inhibitor, partial curve, poor fit] and inconclusive: 2.82 µM [inhibitor, full curve, poor fit]"
same,Potency,[2],"inconclusive: 29.1 µM [inhibitor, single point]"
same,Potency,[3],"inconclusive: 9.04 µM [inhibitor, partial curve]"
Cc1ccccc1-n1c(Cn2ncc3c(N)ncnc32)nc2cccc(C)c2c1=O,Potency,[4],"inconclusive: 17.1 µM [inhibitor, partial curve, poor fit]"
same,Potency,[5],"inconclusive: 4.17 µM [inhibitor, full curve]"
same,Potency,[2],"inconclusive: 4.68 µM [inhibitor, full curve]"
COc1cc(C)[nH]c(=O)c1CNC(=O)c1c(C)n([C@H](C)C2CCOCC2)c2ccccc12,Potency,[1],"inconclusive: 39.8 µM [inhibitor, single point]"
same,Potency,[2],"inconclusive: 20.9 µM [inhibitor, partial curve]"
O=C(Oc1ccc([N+](=O)[O-])cc1)N1CCN(Cc2cccc(Oc3ccccc3)c2)CC1,Potency,[1],"inconclusive: 39.8 µM [inhibitor, single point]"
same,Potency,[6],"inconclusive: 1.5 µM [inhibitor, full curve, poor fit]"
O=C1C2CC=CCC2C(=O)N1SC(Cl)(Cl)Cl (stereo not given),Potency,[1],"inconclusive: 39.8 µM [inhibitor, partial curve, poor fit]"
same,Potency,[7],"inconclusive: 14.3 µM [inhibitor, partial curve]"
same,Potency,[3],active: 14.1 µM
Clc1ccc(CSC(Cn2ccnc2)c2ccc(Cl)cc2Cl)cc1 (stereo not given),Potency,[1],"inconclusive: 25.1 µM [inhibitor, partial curve, poor fit]"
same,Potency,[8],"inconclusive: 17.7 µM [inhibitor, partial curve, poor fit]"
same,Potency,[9],inactive
same,Potency,[7],inactive
Cc1c(C(=O)Nc2cccc(C(F)(F)F)c2)cc(-c2ccccc2)n1CCCN1CCOCC1,Potency,[1],"inconclusive: 31.6 µM [inhibitor, partial curve, poor fit]"
same,Potency,[2],active: 23.5 µM
CC[C@@H](CO)NC(=O)[C@@H]1C=C2c3cccc4c3c(cn4C)C[C@H]2N(C)C1,Potency,[5],"inconclusive: 33.5 µM [inhibitor, single point]"
COc1ccc(CNC(=O)/C=C/c2ccc3[nH]cc(CCN(C)C)c3c2)cc1,Potency,Papain (Carica papaya),inactive
O=c1[nH]c2cc(Cl)ccc2n1C1CCNCC1,Potency,[5],inactive
C1CCC(NC2CCCCC2)CC1,Potency,[5],"inconclusive: 29.9 µM [inhibitor, single point]"
CN[C@@H]1C[C@@H](c2ccc(Cl)c(Cl)c2)c2ccccc21,Potency,[10],"inconclusive: 34.5 µM [inhibitor, partial curve]"
C[C@]12CC[C@@H]3[C@@H](CCC4=CC(=O)CC[C@@H]43)[C@@H]1CC[C@@H]2OC(=O)CCc1ccccc1,Potency,[5],inactive
Cc1c(N[C@@H](c2nnc(-c3ccc(C#N)cc3)o2)[C@H](C)O)ccc(C#N)c1Cl,Potency,[5],"inconclusive: 12.9 µM [inhibitor, partial curve]"
CC[C@@]1(O)C(=O)OCc2c1cc1n(c2=O)Cc2cc3ccccc3nc2-1,Potency,Papain (Carica papaya),active: 3.98 µM
same,Potency,[5],active: 0.0148 µM
same,Potency,[2],active: 0.0132 µM
same,Potency,[7],"inconclusive: 4.59 µM [inhibitor, single point]"
same,Potency,[3],active: 9.04 µM
C[C@]12Cc3cn[nH]c3C[C@@H]1CC[C@@H]1[C@@H]2CC[C@@]2(C)[C@H]1CC[C@]2(C)O,Potency,[5],"inconclusive: 16.8 µM [inhibitor, single point] and inconclusive: 23.5 nM [inhibitor, full curve]"
Cc1ccc(S(=O)(=O)N[C@@H](CCCCN)C(=O)CCl)cc1,Potency,Papain (Carica papaya),active: 14.1 µM
same,Potency,[5],"inconclusive: 23.7 µM [inhibitor, partial curve, poor fit]"
Nc1ccccc1C(=O)OCC(O)CO (stereo not given),Potency,[5],inactive
CN(N=O)c1ccc(O)c(O)c1,Potency,Papain (Carica papaya),"inconclusive: 1.41 µM [inhibitor, full curve, poor fit]"
same,Potency,[11],active: 12.6 µM
C[C@]12CCC(=O)C=C1CC[C@@H]1[C@@H]2CC[C@@]2(C)[C@H]1CC[C@]2(C)O,Potency,[10],inactive
same,Potency,[2],"inconclusive: 23.7 µM [inhibitor, single point]"
Oc1ccc2c3c1O[C@H]1c4[nH]c5c(N=C=S)cccc5c4C[C@@]4(O)[C@@H](C2)N(CC2CC2)CC[C@]314,Potency,[5],"inconclusive: 14.5 µM [inhibitor, partial curve, poor fit]"
CC1CCCC(=O)CCC/C=C/c2cc(O)cc(O)c2C(=O)O1 (stereo not given),Potency,[10],active: 15.8 µM
same,Potency,[2],"inconclusive: 14.2 µM [inhibitor, partial curve, poor fit]"
same,Potency,[6],active: 14.7 µM
